This note sets out measurements from ChEMBL document CHEMBL1201862, “PubChem BioAssay data set” (2004).

Values joined by “and” are separate entries in the source; they are usually repeats but may differ in a detail not shown here. Identical values can stand only once.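 96-well plates; 48 h exposure; 5 concentrations. Endpoints by linear interpolation between flanking doses. Not reached: highest tested concentration assigned. GI50 is the concentration that inhibits growth by half.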 Active and inactive are the calls of the source. Rule as the data show it: active = GI50 up to about 1.1 µM and inactive = higher.

The test deals with NCI-H322M. As to the kind of experiment: DTP human tumour cell line panel, 48 h.
In the case of `CN1CCN(c2ccc3[nH]c(-c4ccc5[nH]c(-c6ccc(O)cc6)nc5c4)nc3c2)CC1`, the GI50 is inactive: 119 µM.

On to `S=C1SCN(C2CCCCCCCCCCC2)CN1C1CCCCCCCCCCC1`, for which the GI50 is inactive: > 100 µM.

With `c1ccc2c(c1)CCc1c(-c3ccncc3)n[nH]c1-2`, the GI50 is inactive: 39.4 µM.

Take `CC(C)[Si]1(C(C)C)OCC2OC(n3cnc4c(N)ncnc43)C(N)C2O[Si](C(C)C)(C(C)C)O1` (stereo unspecified): the GI50 was inactive: 22.9 µM.

With `O=C(O)C(=Cc1ccnc2ccccc12)C(=O)O`, the GI50 was inactive: > 100 µM.

For the compound `CN(C)c1ccc(/C=C(/C(=O)O)c2csc(-c3nc(/C(=C\c4ccc(N(C)C)cc4)C(=O)O)cs3)n2)cc1`, the GI50 is inactive: > 100 µM.

Regarding `N=C(NC(=S)N1CCCCC1)N1CCCCC1`, the GI50 was inactive: > 100 µM.

For the compound `Cc1cc2nc3c(C(OC4OC(CO)C(O)C(O)C4O)C(O)CO)nn(-c4ccccc4)c3nc2cc1C` (stereo unspecified), the GI50 was inactive: > 100 µM.

Turning to `N=c1oc2ccccc2cc1C(=O)Nc1ccccn1`, the GI50 is inactive: 50.1 µM.

Turning to `CCOC(=N)n1c(=O)n(C2=NCCN2)c2ccccc21`, the GI50 was inactive: > 100 µM.

Take `CC1(C)OCN(c2ccc(S(N)(=O)=O)cc2)Cn2c1nc1ccccc12`: the GI50 is inactive: > 100 µM.

With `O=C(CC(=O)Nc1ccccc1)NNC(Sc1ccccc1)c1cc(/N=N/c2ccc(Br)cc2)ccc1O` (stereo unspecified), the GI50 is inactive: 1.28 µM.

Turning to `Cc1cc(-c2nc3ccc(F)cc3s2)ccc1NC(=O)C(N)CCCCN` (stereo unspecified), the GI50 was inactive: 6.58 µM.

`Cc1c2c(c(C)n1-c1ccccc1)C(=O)N(CCCCN1CCN(c3ccccc3)CC1)C2=O`: the GI50 is inactive: 21.1 µM.

As for `CCOC(=O)c1cn(CC)c2ccc3ccsc3c2c1=O`, the GI50 is inactive: > 100 µM.

For `Nc1ccc(Oc2ccc(C34CC5CC(C3)CC(c3ccc(Oc6ccc(N)cc6)cc3)(C5)C4)cc2)cc1`, the GI50 was inactive: 3.24 µM.

In the case of `COC(=O)[C@@H](NC(=O)N(CCC#N)CCCN(C(=O)N[C@H](Cc1ccccc1)C(=O)OC)c1ccccc1)C(C)C`, the GI50 is inactive: > 100 µM.

Turning to `c1ccc(C(CCN2CCCC2)c2ccccn2)cc1` (stereo unspecified), the GI50 was inactive: > 100 µM.

Consider `CSc1nc(NC(C)C)c2c(n1)Sc1nc3ccccc3n1C2O` (stereo unspecified), for which the GI50 is inactive: 9.68 µM.

For `S=C1NC(c2ccccc2)=NC(Cc2ccccc2)(c2ccccc2)N1c1ccccc1` (stereo unspecified), the GI50 was inactive: > 100 µM.

Take `O=C1/C(=C\c2cccc(Oc3ccccc3)c2)SC(c2ccccc2)N1c1cccc(Cl)c1` (stereo unspecified): the GI50 is inactive: > 100 µM.

Turning to `O=C1Nc2c(Cl)cc(Cl)cc2/C1=N/N=C/c1ccccc1O`, the GI50 is inactive: 19 µM.

With `CC(=O)N1CCN(CCCCN2c3ccccc3Sc3cc(N=[N+]=[N-])ccc32)CC1`, the GI50 was inactive: 17.3 µM.

With `O=C(NOC(=O)c1ccc([N+](=O)[O-])cc1)c1ccc(Cl)cc1`, the GI50 is inactive: > 100 µM.

`Cc1cc2c3ccccc3n3c2c2c1OC1(C)CCC(C2C1)C3(C)C` (stereo unspecified): the GI50 is inactive: > 25 µM.

With `CCNc1cnc2c(n1)c(=O)n(C)c(=O)n2C`, the GI50 is inactive: > 100 µM.

Turning to `Cc1ccc(S(=O)(=O)C2=Cc3ccccc3C2(O)c2ccccc2)cc1` (stereo unspecified), the GI50 is inactive: 24 µM.

Regarding `COc1cc2c(cc1OC)C(=O)/C(=C/c1ccccc1)C2`, the GI50 was inactive: > 90.8 µM.

Take `Nc1nncc2[nH]cnc12`: the GI50 is inactive: 73.6 µM.

Take `Cn1c(=O)c2c(-c3ccccc3)onc2n(C)c1=O`: the GI50 was inactive: 53.1 µM.

With `CC1C=CC(C(N)C(=O)O)O1` (stereo unspecified), the GI50 was inactive: > 100 µM.

For the compound `O=c1nc2sc3ccc4ccccc4c3n2nc1-c1ccccc1`, the GI50 was inactive: 34.3 µM.

As for `CC(C)=CCSC1CC2C(CC1(C)O)C2(C)C` (stereo unspecified), the GI50 was inactive: 15.7 µM and inactive: 15.6 µM.

For the compound `COC(=O)c1c(O)ccc2c1c1c(n2Cc2ccccc2)C(=O)c2ccccc2C1`, the GI50 was inactive: > 100 µM.

For `CO/N=C1\CC(NC(=O)CNC(=O)OC(C)(C)C)c2ccsc21` (stereo unspecified), the GI50 is inactive: > 100 µM.

As for `Oc1c2cccc1Cc1cccc3c1OCCOCCOCCOCCOc1c(cccc1Cc1cccc(c1O)C3)C2`, the GI50 was inactive: > 100 µM.

As for `CC(C)/C(Cl)=N\OC(=O)Nc1cccc(F)c1`, the GI50 is inactive: 12.8 µM.

`Cc1ccc(-c2cn3c(nc4ccccc43)c(C)n2)cc1`: the GI50 was inactive: > 62.5 µM.

`CN(C)CN1C(=O)S/C(=C2\C(=O)N(CN(C)C)c3ccccc32)C1=O`: the GI50 was inactive: > 100 µM.

Take `CCCCCC(C)SC1(C(=O)OC)CC(OC(C)=O)C(NC(C)=O)C([C@H](OC(C)=O)[C@@H](COC(C)=O)OC(C)=O)O1` (stereo partly specified): the GI50 was inactive: > 100 µM.

Consider `CNC(=S)N1CCN(C(C)=O)C1=S`, for which the GI50 was inactive: 44.5 µM.

Consider `CC(=O)OC[C@]1(C(=O)C(O)c2ccoc2)[C@H](C)CC[C@@]23COC(=O)C2=CCC[C@@H]31` (stereo partly specified), for which the GI50 was inactive: > 10 µM.

Turning to `CC1=NN(c2nc(N)nc(-c3sccc3N)n2)C(C)(C)C1`, the GI50 was inactive: > 100 µM.

For the compound `CC(=O)C(/N=N\C1CCC(S(=O)(=O)NB2N=CS2)CC1)C(=O)Nc1ccccc1C` (stereo unspecified), the GI50 was inactive: 16.8 µM.

As for `CC12CP(=O)(c3ccccc3)CC1C2(Cl)Cl` (stereo unspecified), the GI50 was inactive: > 100 µM.

As to `O=C(Cc1nc2ccccc2s1)NC12CC3CC(CC(C3)C1)C2`, the GI50 was inactive: > 100 µM.

On to `COc1c(C(=O)O)cccc1-c1cccc(C(=O)NCCN(CCNC(=O)c2cccc(-c3cccc(C(=O)O)c3OC)c2OC)CCNC(=O)c2cccc(-c3cccc(C(=O)O)c3OC)c2OC)c1OC`, for which the GI50 is inactive: 28.7 µM.

As to `COP(=O)(OC)C(NC=O)P(=O)(OC)OC`, the GI50 was inactive: > 100 µM.

Take `O=C(CCc1cc(-c2ccccc2)[nH]c(=S)n1)Nc1ccccc1[N+](=O)[O-]`: the GI50 is inactive: > 100 µM.

In the case of `OC[P+](CO)(CO)C12CC3CC(CC(C3)C1)C2`, the GI50 was inactive: > 100 µM.

`CC[C@@]1(O)C(=O)OCc2c1cc1n(c2=O)Cc2c-1nc1ccccc1c2/C=N\NC(=O)C(N)=O`: the GI50 is inactive: 15.8 µM.

Turning to `Cc1ccc2c(O)c3c(cc2c1)C(=O)c1c2c(cc(O)c1C3=O)C1(C)OC(O2)C(O)C(N(C)C)C1O` (stereo unspecified), the GI50 is inactive: 1.53 µM.

As to `COc1ccc2nc(-c3ccc(OCc4ccccc4)cc3)ccc2c1`, the GI50 was inactive: > 100 µM.

As for `CCOC(=O)N1c2c(ccn2C)-c2ccn(C)c2N1C(=O)OCC`, the GI50 was inactive: 20.6 µM.

On to `COS(=O)c1cc(Cl)cc(Cl)c1OC(=O)CSSCC(=O)Oc1c(Cl)cc(Cl)cc1S(=O)OC` (stereo unspecified), for which the GI50 is inactive: 11.5 µM.

Take `Oc1ccc[nH]c1=[Se]`: the GI50 is inactive: 87.1 µM.

On to `OCC1OC(n2nc(-c3ccccc3)nc2-c2cnccn2)C(O)C1O` (stereo unspecified), for which the GI50 was inactive: > 100 µM.

For `Cc1c2c(cc3c1C(=O)C(O)=C([C@@H](C)CO)C3=O)C(C)(C)CCC2`, the GI50 was inactive: 28.3 µM.

Take `Cc1ncc([N+](=O)[O-])n1CCn1ccnc1[N+](=O)[O-]`: the GI50 was inactive: > 100 µM.

As for `Nc1ccc2c(c1)C1=NNC(=O)CC1C2` (stereo unspecified), the GI50 is inactive: > 90.6 µM.

Consider `CCOC(=O)c1ccc(NCC#CCN2CCOCC2)cc1`, for which the GI50 was inactive: > 100 µM.

`Cc1cccc(/C=N/NC(=S)NC2CCCCC2)n1`: the GI50 is inactive: 31.3 µM.

`C(/c1ccco1)=c1/nc(-c2ccccc2)n2c1nc1ccccc12`: the GI50 was inactive: 1.63 µM.

With `O=C1C2=Cc3ccccc3CCN2c2ccc([N+](=O)[O-])cc21`, the GI50 was inactive: > 100 µM.

For the compound `Nc1ccc(Cc2ccc(N)c(C(=O)O)c2)cc1C(=O)O`, the GI50 is inactive: > 100 µM.

For `Cn1c(=O)c(C2c3ccccc3Oc3c2c(=O)n(C)c2ccccc32)c(O)c2ccccc21` (stereo unspecified), the GI50 is inactive: 64.6 µM.

As for `CC1(C)OC(=O)C2(O1)C(=O)C1CCCCC12` (stereo unspecified), the GI50 was inactive: > 100 µM.

`O=S(=O)(CCn1c(Sc2ccccc2)c(Sc2ccccc2)c2ccccc21)c1ccccc1`: the GI50 is inactive: > 100 µM.

Take `CCOC(=O)C1(C(=O)OCC)C[C@H]2CON=C2[C@@H]1c1ccc(C(F)(F)F)cc1`: the GI50 is inactive: > 100 µM.

With `Oc1ccc(Oc2cc3c(cc2Oc2ccc(O)cc2)-c2nc-3nc3[nH]c(nc4nc(nc5[nH]c(n2)c2cc(Oc6ccc(O)cc6)c(Oc6ccc(O)cc6)cc52)-c2cc(Oc5ccc(O)cc5)c(Oc5ccc(O)cc5)cc2-4)c2cc(Oc4ccc(O)cc4)c(Oc4ccc(O)cc4)cc32)cc1`, the GI50 is inactive: 80.7 µM.

Regarding `C=C1c2nc3ccccc3n2C=C(c2ccccc2)N1c1ccccc1`, the GI50 was inactive: > 100 µM.

For `O=c1oc2ccc3ccccc3c2cc1-c1cn2ccccc2n1`, the GI50 was inactive: 62.2 µM.

In the case of `Cc1ccc(-c2c3c(n(C4OC(CO)C(O)C(O)C4O)c(=S)c2C#N)CC(C)(C)CC3=O)cc1` (stereo unspecified), the GI50 was inactive: > 100 µM.

As for `C=CCOC(C)(C)C1=CCC(C)CC1` (stereo unspecified), the GI50 was inactive: > 100 µM.

Regarding `CN(c1ccccc1Cl)S(=O)(=O)c1ccc([N+](=O)[O-])cc1`, the GI50 is inactive: > 100 µM.

As to `O=C1O[C@@H](c2ccccc2)C[C@@H]1CN1CCOCC1`, the GI50 was inactive: > 100 µM.

On to `O=S(=O)(O)c1cc(S(=O)(=O)O)c2cc(/N=N/c3ccc(/N=N/c4ccc(/C=C/c5ccc(/N=[N+](/[O-])c6ccc(/C=C/c7ccc(/N=N/c8ccc(/N=N/c9ccc%10cc(S(=O)(=O)O)cc(S(=O)(=O)O)c%10c9)cc8)cc7S(=O)(=O)O)c(S(=O)(=O)O)c6)cc5S(=O)(=O)O)c(S(=O)(=O)O)c4)cc3)ccc2c1`, for which the GI50 was inactive: 21.3 µM.

On to `Oc1nc2nc3ccccc3nc2nc1O`, for which the GI50 is inactive: > 100 µM.

With `C[C@@H]1CC[C@H]2[C@H](C)C(OC3O[C@@H]4O[C@@]5(C)CC[C@H]6[C@H](C)CC[C@@H]([C@@H]3C)[C@@]46O5)O[C@@H]3O[C@@]4(C)CC[C@@H]1[C@]32O4` (stereo partly specified), the GI50 is inactive: > 100 µM.

In the case of `CN(C)c1ccc(/C=C2\CCCCCC2=O)cc1`, the GI50 is inactive: > 100 µM.

Take `Oc1ccc(-c2nc3ccccc3s2)cc1`: the GI50 was inactive: 29.4 µM.

Usually GI50 stands for the concentration that inhibits growth by half.
